Source: PubChem BioAssay AID1030 (National Center for Advancing Translational Sciences (NCATS), 2008)
About 16,000 (7.3%) of roughly 220,000 compounds were called active. The shares of active, inactive and inconclusive entries below differ from those in the screen. Calls follow the shape of the dose curve; as a rule, active = well fitted inhibition curve with a large enough effect (not every such curve was filed as active); inconclusive = small, poorly fitted or top-dose-only effect, or another doubt; inactive = no such curve, though single readings can be large or run the other way. Potencies of inconclusive entries are left out as doubtful fits.

The compounds below were run against Aldehyde dehydrogenase 1A1 (Homo sapiens) (UniProt P00352) (assay: qHTS Assay for Inhibitors of Aldehyde Dehydrogenase 1 (ALDH1A1)). Settings: Purified ALDH1A1, NADH fluorescence, propionaldehyde substrate; series mostly up to 75.3 µM.
Chain of UniProt P00352 (P00352 whole entry, looked up): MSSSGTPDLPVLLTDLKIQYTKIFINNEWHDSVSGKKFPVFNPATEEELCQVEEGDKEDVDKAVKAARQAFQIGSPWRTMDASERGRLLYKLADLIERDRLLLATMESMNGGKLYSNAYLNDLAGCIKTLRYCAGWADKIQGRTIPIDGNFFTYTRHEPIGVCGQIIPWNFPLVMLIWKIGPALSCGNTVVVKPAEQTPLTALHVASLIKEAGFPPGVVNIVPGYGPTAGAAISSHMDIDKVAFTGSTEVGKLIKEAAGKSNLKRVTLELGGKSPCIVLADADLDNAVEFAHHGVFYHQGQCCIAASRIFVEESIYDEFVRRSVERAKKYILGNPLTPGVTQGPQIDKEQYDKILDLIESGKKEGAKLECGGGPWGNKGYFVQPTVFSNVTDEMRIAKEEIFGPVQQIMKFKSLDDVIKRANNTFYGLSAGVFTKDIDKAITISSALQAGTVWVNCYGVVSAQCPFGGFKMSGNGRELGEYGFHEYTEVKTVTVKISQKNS
Potency is read from the fitted curve at half-maximal effect; tags tell the direction and shape of the fitted curve.

Row | SMILES | Potency
1 | COc1cccc(Oc2cn[nH]c2-c2ccc(O)cc2O)c1 | inconclusive [inhibitor, single point]
2 | CCCOc1ccc(/C=N/Nc2ccccn2)cc1OC | inactive
3 | CCOc1ccccc1C1C(C#N)=C(N)Oc2n[nH]c(CC)c21 (stereo not given) | inconclusive [inhibitor, single point]
4 | COc1ccc2c(C)cc(SCC(=O)c3ccc4c(c3)OCO4)nc2c1 | inconclusive [inhibitor, partial curve]
5 | CCc1nnc(NC(=O)c2cc3ccccc3oc2=O)s1 | inactive
6 | CCCCn1c(=O)[nH]c(=O)c2c1nc(-c1ccccc1F)n2Cc1ccccc1OC | inconclusive [inhibitor, single point]
7 | c1ccc(OCc2nnc3sc(-c4cccs4)nn23)cc1 | active: 3.55 µM
8 | CCc1onc(C)c1C(=O)O | inactive
9 | CCc1ccc(S(=O)(=O)NCc2cn3c(C)csc3n2)s1 | inconclusive [inhibitor, single point]
10 | CC(=O)N(CCO)Cc1cc2cc(C)cc(C)c2[nH]c1=O | inconclusive [inhibitor, partial curve]
11 | O=C(O)c1cccc(NC(=S)NCc2ccccc2)c1 | inactive
12 | CCOC(=O)N1CCN(C(=O)CSc2nnc(-c3ccc(C)c(C)c3)o2)CC1 | inconclusive [inhibitor, partial curve]
13 | Cc1ccc(S(=O)(=O)CCC(=O)OCC(=O)N2CC(=O)Nc3ccccc32)cc1 | inconclusive [inhibitor, partial curve]
14 | CCOC(=O)c1ccccc1NC(=S)N1CC(C)CC(C)C1 (stereo not given) | active: 25.1 µM
15 | Oc1ccc(C=Nc2ccccc2-c2nc3ccccc3[nH]2)c(O)c1 | inconclusive [inhibitor, partial curve]
16 | CC(C)CNC(=O)CC1Nc2ccccc2NC1=O (stereo not given) | inconclusive [inhibitor, single point]
17 | CCC1SC2=NC(C)=C(C(=O)OC)C(c3ccc(C)cc3)N2C1=O (stereo not given) | active: 14.1 µM
18 | CC1(C)C(=O)NC2=C1C(=O)C(=O)c1ccccc12 | active: 28.2 µM
19 | C[N+](C)(C)CCCCCCC(=O)/C=N/O | inactive
20 | COC(=O)c1ccc(C(NC(=O)OCc2ccccc2)/C(C)=C/[C@@H](C)C(=O)NCc2nn(-c3ccccc3)nc2C)cc1 (stereo not given in full) | inconclusive [inhibitor, partial curve]
21 | Cc1cc(O)ccc1Nc1nc(-c2sc(N)nc2C)cs1 | active: 8.91 µM
22 | CCN(CC)C(=O)c1nn(-c2ccccc2)c2c1C1CCC2(C)C1(C)C (stereo not given) | inactive
23 | CCOc1cc(N2CCOCC2)c(OCC)cc1NC(=O)COC(=O)[C@@H]1CCCN1S(=O)(=O)c1ccccc1F | inconclusive [inhibitor, single point]
24 | Cc1ccc(-c2nnc(N)s2)cc1 | inconclusive [inhibitor, single point]
25 | N#CCCN(Cc1ccccc1)C(=S)Nc1ccc(F)cc1 | inconclusive [inhibitor, single point]

Row | SMILES | Potency
26 | COc1ccc(NS(=O)(=O)c2ccc(O)c(NC(=O)c3ccc(S(=O)(=O)N4CCCC4)cc3)c2)cc1 | inconclusive [inhibitor, partial curve]
27 | O=C(CSc1nnnn1-c1ccc2c(c1)OCCO2)N1CCN(C(=O)c2ccco2)CC1 | inconclusive [inhibitor, single point]
28 | COc1ccc2cc3cc(C(=O)NCc4cccnc4)oc3nc2c1 | inconclusive [inhibitor, partial curve]
29 | COc1cc(/C=C(\C#N)C(=O)NC(C)C)cc(Cl)c1O | inconclusive [inhibitor, single point]
30 | CCOC(=O)C1CCN(Cc2nnnn2CCc2ccccc2)CC1 | inconclusive [inhibitor, partial curve]
31 | COc1ccc(N2C(=O)CC(NC34CC5CC(CC(C5)C3)C4)C2=O)c(OC)c1 (stereo not given) | inconclusive [inhibitor, single point]
32 | Cc1ccc(S(=O)(=O)Nc2cccnc2)cc1 | inactive
33 | Cc1ccc(CN(Cc2ccco2)C(=S)NCC(=O)NC2CC2)cc1 | inconclusive [inhibitor, single point]
34 | O=S(=O)(N/N=C\c1ccc(-c2ccccc2Cl)o1)c1ccccc1 | inactive
35 | C=CCn1cc(/C=N/NC(=O)COc2cccc3cccnc23)c2ccccc21 | active: 17.8 µM
36 | Cc1cc(C)cc(Nc2ncc3c(n2)CCCC3=O)c1 | inactive
37 | CCC(=O)NCCNc1nc2cc(C)c(C)cc2cc1C#N | inconclusive [inhibitor, partial curve]
38 | CC(=O)Nc1ccc(NC(=O)C2CC(=O)N(c3cccc(C)c3C)C2)cc1 (stereo not given) | inconclusive [inhibitor, single point]
39 | CC(C)c1cc(NC(=O)CCl)on1 | active: 1.58 µM
40 | Cc1cc(C=O)c(C)n1-c1ccc(NC2CCCCC2)c([N+](=O)[O-])c1 | active: 5.62 µM
41 | Cc1nc(NCc2ccccc2)c2nc(-c3ccccc3)n(C(C)CN(C)C)c2n1 (stereo not given) | inconclusive [inhibitor, single point]
42 | COc1cccc2cc(C(=O)CC3(O)C(=O)N(Cc4ccccc4)c4ccccc43)c(=O)oc12 (stereo not given) | active: 0.0891 µM
43 | Cc1ccc(C(=O)N/N=C(\CC(C)C)c2ccccc2)cc1 | inactive
44 | Cc1ccc(CCN2CC(C(=O)NCc3ccco3)CC2=O)cc1 (stereo not given) | active: 28.2 µM
45 | COc1cc(OC)c(NC(=O)CCc2nc(-c3cccs3)no2)cc1Cl | inactive
46 | O=C(CCS(=O)(=O)c1cccc2nsnc12)NC1CCCCC1 | inconclusive [inhibitor, single point]
47 | COc1ccc(OC)c2c(C)cc(N3CCN(C(=O)c4ccc(C)cc4)CC3)nc12 | inconclusive [inhibitor, partial curve]
48 | CC(=O)N1c2ccc3ccccc3c2C2C=CCC2C1c1ccc(Br)cc1 (stereo not given) | inconclusive [inhibitor, single point]
49 | CCN(CC)C(=O)COC(=O)c1cc(-c2ccco2)nc2ccccc12 | inconclusive [inhibitor, partial curve]
50 | CCOC(=O)c1nc(NCCc2ccccc2)sc1C | inconclusive [inhibitor, single point]

Row | SMILES | Potency
51 | CCc1nc(N2CCN(S(C)(=O)=O)CC2)c2c3c(sc2n1)CCCC3 | inconclusive [inhibitor, partial curve]
52 | O=C(CSc1nc2[nH]ncc2c(=O)n1-c1ccccc1)N1CCCCCC1 | active: 5.01 µM
53 | CCOCC(=O)O | inactive
54 | S=C1NC2(CCCC2)Nc2ccccc21 | inconclusive [inhibitor, partial curve]
55 | Cc1cc(N2CCOCC2)ccc1/C=C1\NC(=O)N(CC(=O)Nc2ccccc2C)C1=O | inactive
56 | O=c1oc(-c2ccccc2NS(=O)(=O)c2ccc(Cl)cc2)nc2ccccc12 | inconclusive [inhibitor, partial curve]
57 | c1cc(CNC23CC4CC(CC(C4)C2)C3)ccn1 | inactive
58 | COC(=O)c1ccc(COc2cc([N+](=O)[O-])cc3cccnc23)o1 | inconclusive [inhibitor, partial curve]
59 | COc1cc(/C=N/N2CCN(C3c4ccccc4-c4ccccc43)CC2)cc(OC)c1O | inactive
60 | CCOc1ccc2nc(NCCNC(=O)CC)c(C#N)cc2c1 | inconclusive [inhibitor, single point]
61 | CC(C)[C@@H](CC(=O)N[C@@H]1CCNC[C@H]1C(=O)N[C@H](CC(=O)N[C@@H](CCC(=O)O)CC(=O)O)Cc1c[nH]c2ccccc12)NC(=O)C[C@H](Cc1ccccc1)NC(=O)[C@@H]1CNCC[C@H]1N | inactive
62 | O=C(OCc1ccccc1F)c1ccc2c(c1)-c1ccccc1C2=O | inactive
63 | CCNC(=O)c1ccccc1SCC(=O)Nc1ccc(F)cc1 | inactive
64 | Clc1ccccc1-c1nc(/C=N/N2CCOCC2)c2ccccn12 | active: 39.8 µM
65 | O=C(Nc1c(Cl)ccc2nsnc12)c1ccco1 | inconclusive [inhibitor, single point]
66 | CC(=O)N(C)c1ccc(NC(=O)c2ccccc2C(=O)O)cc1 | inconclusive [inhibitor, single point]
67 | Cc1ccc2[nH]c(=O)c(CN(CCO)Cc3nnnn3CCc3ccccc3)cc2c1 | inconclusive [inhibitor, single point]
68 | COc1ccc(Cl)cc1NC(=O)C(OC)c1ccccc1 (stereo not given) | active: 1.58 µM
69 | CC1(C)CCC[C@@]2(C)C1CC[C@@](C)(O)[C@@H]2CC[C@@](C)(O)C1CO1 (stereo not given in full) | inconclusive [inhibitor, single point]
70 | CCCC(CCC)c1nc2ccncc2[nH]1 | inactive
71 | CC(C)CSc1nnc2c(n1)[nH]c1ccccc12 | inconclusive [inhibitor, single point]
72 | COc1ccc(/C=C/C(=O)OCC(=O)Nc2c(C)cccc2C)cc1 | inactive
73 | COc1cc(/C=N/Nc2cccc(C)c2)cc(Br)c1O | inconclusive [inhibitor, single point]
74 | O=C(CCCNS(=O)(=O)c1cccs1)N1CCc2ccccc2C1 | inconclusive [inhibitor, single point]
75 | CCc1cccc2c(C(=O)CSc3nnc(-c4ccncc4)n3C)c[nH]c12 | inconclusive [inhibitor, single point]
